# Experimental data as given in the supplement of paper PMC8728848.
# The other results are listed elsewhere or left out.
# B1: CVN-E41G (protein)
# chain: MHHHHHHENLYFQSGNFSQACYNSAIQGSVLTSTCIRTNGGYNTSSIDLNSVIGNVDGSLKWQGSNFIETCRNTQLAGSSELAAECKTRAQQFVSTKINLDDHIAAIDGTLKYE
# Experiments:
# Experiment in all cases: glycan array binding signal (z-score within array); higher = stronger binding
# Settings in all cases: glycan notation: IUPAC condensed, linker removed; mutation: E41G
# [1] = target: Neu5Ac(a2-3)Gal
# In short: (§1)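 Glycan array data came from 3228 arrays in the Consortium for Functional Glycomics database, and only arrays with an available protein sequence were kept. Glycan names were put into IUPAC-condensed notation, and columns mapping to the same glycan were averaged. The binding signal is a within-array Z-score, averaged across arrays of one protein sequence run at different concentrations or buffers and across linkers. A negative Z-score can be read as non-binding.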
# [2] = target: Neu5Ac(a2-3)Gal(b1-3)GalNAc
# In short: as §1
# [3] = target: Neu5Ac(a2-3)Gal(b1-3)GalNAc(b1-3)Gal(a1-4)Gal(b1-4)Glc
# In short: as §1
# [4] = target: Neu5Ac(a2-3)Gal(b1-3)GalNAc(b1-4)Gal(b1-4)Glc
# In short: as §1
# [5] = target: Neu5Ac(a2-3)Gal(b1-3)GalNAc(b1-4)[Neu5Ac(a2-3)]Gal(b1-4)Glc
# In short: as §1
# [6] = target: Neu5Ac(a2-3)Gal(b1-3)GalNAc(b1-4)[Neu5Ac(a2-8)Neu5Ac(a2-3)]Gal(b1-4)Glc
# In short: as §1
# [7] = target: Neu5Ac(a2-3)Gal(b1-3)GalNAc6S
# In short: as §1
# [8] = target: Neu5Ac(a2-3)Gal(b1-3)GlcNAc
# In short: as §1
# [9] = target: Neu5Ac(a2-3)Gal(b1-3)GlcNAc(b1-2)Man
# In short: as §1
# [10] = target: Neu5Ac(a2-3)Gal(b1-3)GlcNAc(b1-2)Man(a1-3)[GlcNAc(b1-4)][Neu5Ac(a2-3)Gal(b1-3)GlcNAc(b1-2)Man(a1-6)]Man(b1-4)GlcNAc(b1-4)GlcNAc
# In short: as §1
# [11] = target: Neu5Ac(a2-3)Gal(b1-3)GlcNAc(b1-2)Man(a1-3)[Neu5Ac(a2-3)Gal(b1-3)GlcNAc(b1-2)Man(a1-6)]Man(b1-4)GlcNAc(b1-4)GlcNAc
# In short: as §1
# [12] = target: Neu5Ac(a2-3)Gal(b1-3)GlcNAc(b1-2)[Neu5Ac(a2-3)Gal(b1-3)GlcNAc(b1-4)]Man(a1-6)[Neu5Ac(a2-3)Gal(b1-3)GlcNAc(b1-2)Man(a1-3)]Man(b1-4)GlcNAc(b1-4)GlcNAc
# In short: as §1
# [13] = target: Neu5Ac(a2-3)Gal(b1-3)GlcNAc(b1-3)Gal(b1-3)GlcNAc
# In short: as §1
# [14] = target: Neu5Ac(a2-3)Gal(b1-3)GlcNAc(b1-3)Gal(b1-4)GlcNAc
# In short: as §1
# [15] = target: Neu5Ac(a2-3)Gal(b1-3)GlcNAc(b1-3)GalNAc
# In short: as §1
# [16] = target: Neu5Ac(a2-3)Gal(b1-3)GlcNAc(b1-6)GalNAc
# In short: as §1
# [17] = target: Neu5Ac(a2-3)Gal(b1-3)GlcNAc6S
# In short: as §1
# [18] = target: Neu5Ac(a2-3)Gal(b1-3)[Fuc(a1-4)]GlcNAc
# In short: as §1
# [19] = target: Neu5Ac(a2-3)Gal(b1-3)[Fuc(a1-4)]GlcNAc(b1-3)Gal(b1-3)[Fuc(a1-4)]GlcNAc
# In short: as §1
# [20] = target: Neu5Ac(a2-3)Gal(b1-3)[Fuc(a1-4)]GlcNAc(b1-3)Gal(b1-4)[Fuc(a1-3)]GlcNAc
# In short: as §1
# [21] = target: Neu5Ac(a2-3)Gal(b1-3)[GlcNAc(b1-6)]GalNAc
# In short: as §1
# [22] = target: Neu5Ac(a2-3)Gal(b1-3)[Neu5Ac(a2-6)]GalNAc
# In short: as §1
# [23] = target: Neu5Ac(a2-3)Gal(b1-3)[Neu5Ac(a2-6)]GlcNAc(b1-3)[Fuc(a1-3)[Gal(b1-4)]GlcNAc(b1-6)]Gal(b1-4)Glc
# In short: as §1
# [24] = target: Neu5Ac(a2-3)Gal(b1-3)]Neu5Ac(a2-3)Gal(b1-4)]GlcNAc
# In short: as §1
# [25] = target: Neu5Ac(a2-3)Gal(b1-4)Glc
# In short: as §1
# [26] = target: Neu5Ac(a2-3)Gal(b1-4)GlcNAc
# In short: as §1
# [27] = target: Neu5Ac(a2-3)Gal(b1-4)GlcNAc(b1-2)Man
# In short: as §1
# [28] = target: Neu5Ac(a2-3)Gal(b1-4)GlcNAc(b1-2)Man(a1-3)[GlcNAc(b1-4)][Neu5Ac(a2-3)Gal(b1-4)GlcNAc(b1-2)Man(a1-6)]Man(b1-4)GlcNAc(b1-4)GlcNAc
# In short: as §1
# [29] = target: Neu5Ac(a2-3)Gal(b1-4)GlcNAc(b1-2)Man(a1-3)[Neu5Ac(a2-3)Gal(b1-4)GlcNAc(b1-2)Man(a1-6)]Man(b1-4)GlcNAc(b1-4)GlcNAc
# In short: as §1
# [30] = target: Neu5Ac(a2-3)Gal(b1-4)GlcNAc(b1-2)Man(a1-3)[Neu5Ac(a2-3)Gal(b1-4)GlcNAc(b1-2)Man(a1-6)]Man(b1-4)GlcNAc(b1-4)[Fuc(a1-6)]GlcNAc
# In short: as §1
# [31] = target: Neu5Ac(a2-3)Gal(b1-4)GlcNAc(b1-2)Man(a1-3)[Neu5Ac(a2-6)Gal(b1-4)GlcNAc(b1-2)Man(a1-6)]Man(b1-4)GlcNAc(b1-4)GlcNAc
# In short: as §1
# [32] = target: Neu5Ac(a2-3)Gal(b1-4)GlcNAc(b1-2)[Neu5Ac(a2-3)Gal(b1-4)GlcNAc(b1-4)]Man(a1-3)[GlcNAc(b1-4)][Neu5Ac(a2-3)Gal(b1-4)GlcNAc(b1-2)[Neu5Ac(a2-3)Gal(b1-4)GlcNAc(b1-6)]Man(a1-6)]Man(b1-4)GlcNAc(b1-4)GlcNAc
# In short: as §1
# [33] = target: Neu5Ac(a2-3)Gal(b1-4)GlcNAc(b1-2)[Neu5Ac(a2-3)Gal(b1-4)GlcNAc(b1-4)]Man(a1-3)[GlcNAc(b1-4)][Neu5Ac(a2-3)Gal(b1-4)GlcNAc(b1-4)Man(a1-6)]Man(b1-4)GlcNAc(b1-4)GlcNAc
# In short: as §1
# [34] = target: Neu5Ac(a2-3)Gal(b1-4)GlcNAc(b1-2)[Neu5Ac(a2-3)Gal(b1-4)GlcNAc(b1-6)]Man(a1-6)[Neu5Ac(a2-3)Gal(b1-4)GlcNAc(b1-2)Man(a1-3)][GlcNAc(b1-4)]Man(b1-4)GlcNAc(b1-4)GlcNAc
# In short: as §1
# [35] = target: Neu5Ac(a2-3)Gal(b1-4)GlcNAc(b1-3)Gal
# In short: as §1
# [36] = target: Neu5Ac(a2-3)Gal(b1-4)GlcNAc(b1-3)Gal(b1-3)GlcNAc
# In short: as §1
# [37] = target: Neu5Ac(a2-3)Gal(b1-4)GlcNAc(b1-3)Gal(b1-4)GlcNAc
# In short: as §1
# [38] = target: Neu5Ac(a2-3)Gal(b1-4)GlcNAc(b1-3)Gal(b1-4)GlcNAc(b1-2)Man(a1-3)[Neu5Ac(a2-3)Gal(b1-4)GlcNAc(b1-3)Gal(b1-4)GlcNAc(b1-2)Man(a1-6)]Man(b1-4)GlcNAc(b1-4)GlcNAc
# In short: as §1
# [39] = target: Neu5Ac(a2-3)Gal(b1-4)GlcNAc(b1-3)Gal(b1-4)GlcNAc(b1-3)Gal(b1-4)GlcNAc
# In short: as §1
# [40] = target: Neu5Ac(a2-3)Gal(b1-4)GlcNAc(b1-3)Gal(b1-4)GlcNAc(b1-3)Gal(b1-4)GlcNAc(b1-2)Man(a1-3)[Neu5Ac(a2-3)Gal(b1-4)GlcNAc(b1-3)Gal(b1-4)GlcNAc(b1-3)Gal(b1-4)GlcNAc(b1-2)Man(a1-6)]GalNAc
# In short: as §1
# [41] = target: Neu5Ac(a2-3)Gal(b1-4)GlcNAc(b1-3)Gal(b1-4)GlcNAc(b1-3)GalNAc
# In short: as §1
# [42] = target: Neu5Ac(a2-3)Gal(b1-4)GlcNAc(b1-3)Gal(b1-4)GlcNAc(b1-3)[Neu5Ac(a2-3)Gal(b1-4)GlcNAc(b1-3)Gal(b1-4)GlcNAc(b1-6)]GalNAc
# In short: as §1
# [43] = target: Neu5Ac(a2-3)Gal(b1-4)GlcNAc(b1-3)Gal(b1-4)GlcNAc(b1-6)[Gal(b1-3)]GalNAc
# In short: as §1
# [44] = target: Neu5Ac(a2-3)Gal(b1-4)GlcNAc(b1-3)Gal(b1-4)[Fuc(a1-3)]GlcNAc
# In short: as §1
# [45] = target: Neu5Ac(a2-3)Gal(b1-4)GlcNAc(b1-3)GalNAc
# In short: as §1
binder,measurement,setting,value
B1,glycan array binding signal (z-score),[1],-0.196
same,glycan array binding signal (z-score),[2],-0.136
same,glycan array binding signal (z-score),[3],-0.163
same,glycan array binding signal (z-score),[4],-0.111
same,glycan array binding signal (z-score),[5],-0.163
same,glycan array binding signal (z-score),[6],-0.17
same,glycan array binding signal (z-score),[7],-0.148
same,glycan array binding signal (z-score),[8],-0.157
same,glycan array binding signal (z-score),[9],-0.161
same,glycan array binding signal (z-score),[10],0.122
same,glycan array binding signal (z-score),[11],-0.059
same,glycan array binding signal (z-score),[12],0.185
same,glycan array binding signal (z-score),[13],-0.184
same,glycan array binding signal (z-score),[14],-0.141
same,glycan array binding signal (z-score),[15],-0.139
same,glycan array binding signal (z-score),[16],-0.146
same,glycan array binding signal (z-score),[17],-0.165
same,glycan array binding signal (z-score),[18],-0.158
same,glycan array binding signal (z-score),[19],-0.048
same,glycan array binding signal (z-score),[20],0.001
same,glycan array binding signal (z-score),[21],-0.159
same,glycan array binding signal (z-score),[22],-0.142
same,glycan array binding signal (z-score),[23],-0.162
same,glycan array binding signal (z-score),[24],-0.135
same,glycan array binding signal (z-score),[25],-0.122
same,glycan array binding signal (z-score),[26],-0.167
same,glycan array binding signal (z-score),[27],0.006
same,glycan array binding signal (z-score),[28],-0.172
same,glycan array binding signal (z-score),[29],-0.16
same,glycan array binding signal (z-score),[30],-0.172
same,glycan array binding signal (z-score),[31],-0.142
same,glycan array binding signal (z-score),[32],-0.18
same,glycan array binding signal (z-score),[33],-0.174
same,glycan array binding signal (z-score),[34],-0.068
same,glycan array binding signal (z-score),[35],-0.175
same,glycan array binding signal (z-score),[36],-0.178
same,glycan array binding signal (z-score),[37],-0.168
same,glycan array binding signal (z-score),[38],-0.059
same,glycan array binding signal (z-score),[39],-0.156
same,glycan array binding signal (z-score),[40],0.008
same,glycan array binding signal (z-score),[41],-0.153
same,glycan array binding signal (z-score),[42],-0.126
same,glycan array binding signal (z-score),[43],-0.146
same,glycan array binding signal (z-score),[44],-0.177
same,glycan array binding signal (z-score),[45],-0.153
